Results as given in a compilation of properties of binary mixtures (doi:10.1016/j.jct.2022.106970).
The densities may have been worked out from excess volumes.

Test: xn = mol fraction of the nth substance listed
Details: 92.3 kPa

CCO + CCCC[NH3+].O=C[O-]
x2 = 0
Details | mass density [kg/m3]
293.15 K | 789.4
298.15 K | 785.1
308.15 K | 776.4
313.15 K | 772

CCCC[NH3+].O=C[O-] + CCO
mass density [kg/m3]
Details | 293.15 K | 298.15 K | 303.15 K | 308.15 K | 313.15 K
x1 = 0.0484 | 811.6 | 807.5 | 803.4 | 799.3 | 795.2
x1 = 0.1038 | 832.3 | 828.4 | 824.5 | 820.6 | 816.7
x1 = 0.1507 | – | 843.8 | 840 | 836.2 | 832.4
x1 = 0.2004 | 861.7 | – | 854.4 | – | 847.1
x1 = 0.2564 | 875.9 | 872.4 | – | – | 861.6
x1 = 0.2938 | 884.5 | 881 | 877.5 | 874 | 870.5
x1 = 0.355 | 897 | 893.6 | – | – | 883.4
x1 = 0.3886 | – | 900 | 896.7 | 893.3 | –
x1 = 0.4521 | 914.2 | 910.9 | – | – | 901.2
x1 = 0.5005 | 921.7 | 918.4 | – | 912 | 908.8
x1 = 0.5487 | 928.5 | 925.3 | 922.2 | 919 | 915.9
x1 = 0.5982 | 934.9 | 931.8 | – | 925.6 | 922.5
x1 = 0.6393 | 939.9 | 936.8 | 933.8 | – | 927.7
x1 = 0.6993 | 946.7 | 943.7 | 940.7 | – | 934.7
x1 = 0.749 | 951.9 | 949 | 946 | 943 | 940.1
x1 = 0.7972 | – | 953.7 | 950.7 | 947.8 | 944.9
x1 = 0.8487 | 961.2 | – | 955.4 | 952.5 | 949.7
x1 = 0.8993 | 965.5 | 962.6 | 959.7 | 956.9 | 954.1
x1 = 0.9444 | – | – | 963.4 | 960.6 | 957.8
x1 = 1 | 973.6 | 970.8 | 968 | 965.2 | 962.5
